Binding signal (normalized occupancy) data for 172 sequences are collected here from PMC4242493.

The other results are listed elsewhere or left out. The list includes weakly bound sequences.

The test concerns the target MaxL homodimer (UniProt P61244). The test is described as follows: universal protein-binding microarray (PBM). The note with it: PBS-based mixture, 10 nM His-tagged protein dimer, 2% milk, 200 ng/uL BSA, 50 ng/uL salmon testes DNA, 0.02% TX-100; detection with Alexa 488 anti-His …; high values mean tight binding; most listed sequences are background and not binding sites; double strand, one strand shown.
Chain of UniProt P61244 (P61244 whole entry): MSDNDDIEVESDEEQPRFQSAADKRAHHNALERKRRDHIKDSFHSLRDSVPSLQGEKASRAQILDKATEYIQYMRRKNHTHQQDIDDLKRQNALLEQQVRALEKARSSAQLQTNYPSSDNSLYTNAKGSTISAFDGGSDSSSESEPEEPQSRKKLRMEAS
As to TCCCTTAA, the binding signal (normalized occupancy) is 0.0756.
Under GACTTACC stands 0.0805.
Then ACGTTTAC, with 0.0795; and GATCACCC, with 0.0786; and ACTTGACT, with 0.0743.
Under AAATGCGT stands 0.0858; under GTGCCCAC, 0.0788.
Regarding TAGTACAA, the binding signal (normalized occupancy) amounted to 0.0729.
Then ATAGTCGA, with 0.074; and TCAGCACA, with 0.0823.
Then CTAACGTA, with 0.0783; and GGAGTCCA, with 0.0766; and CAACCCAC, with 0.082.
Under CTTTTTAA stands 0.07; under AAGAATGC, 0.0755; under ATCGAGTA, 0.0793.
For CACCGGAC, the binding signal (normalized occupancy) turned out to be 0.0724.
Then ACCCAGGA, with 0.0727.
Under AAAAGGGG stands 0.072; under ACTCAGTC, 0.0717.
Under AAATGTAC stands 0.0841.
As for CTCGTAGA, the binding signal (normalized occupancy) amounted to 0.0699.
As to GACTTATA, the binding signal (normalized occupancy) was 0.0764.
Under CTTGTCAA stands 0.0754.
Under ACTAGCGG stands 0.067; under ACACTTAG, 0.0804.
Then CACACGAC, with 0.0877.
In the case of CCCATCGG, the binding signal (normalized occupancy) is 0.072.
ACTTAGAA: the binding signal (normalized occupancy) was 0.0752.
Under CACCTATC stands 0.0826.
Under TGGGATAA stands 0.0791.
Then AGTACGCA, with 0.0726; and AGGACATG, with 0.0903.
For the sequence GAGCGGTA, the binding signal (normalized occupancy) stood at 0.0669.
Consider TAAGTCAA, for which the binding signal (normalized occupancy) was determined as 0.0696.
Under CTCCATTC stands 0.0774; under AATTCGTA, 0.0775; under CGATTGGA, 0.0732.
Then AGATTGTC, with 0.0748; and TCGAACGA, with 0.0735; and AAATTCGC, with 0.0739.
Then TCAGGAAA, with 0.0694; and AGGAGCCC, with 0.0711.
For the sequence TATAAATA, the binding signal (normalized occupancy) was 0.0757.
In the case of CCTGATCG, the binding signal (normalized occupancy) stood at 0.0727.
Under CTCTCGCA stands 0.0754; under ACAGCCAC, 0.0758; under GGGGGTAC, 0.082.
Then CCTCCAGA, with 0.0716; and GACATGTA, with 0.0884; and GAGGACTA, with 0.0758.
Under CTAGGGAG stands 0.0726; under ACATTCGT, 0.0804.
In the case of ACGGTACA, the binding signal (normalized occupancy) was 0.0773.
Then AAGTAGGC, with 0.0745; and TCACGGAA, with 0.0721; and CCCGGGCG, with 0.069.
Turning to AGACTGTG, the binding signal (normalized occupancy) came out at 0.0696.
Then AGGGACGC, with 0.0691; and ACGTGGTA, with 0.115; and TAAATTTA, with 0.0729.
Under AAACCTGG stands 0.0787.
Then GAAGGTAA, with 0.0738.
For TCAGTCCA, the binding signal (normalized occupancy) amounted to 0.0731.
Under ATCTAACC stands 0.0798; under TGTCCAAA, 0.079; under CCTCCTTC, 0.0732.
Under GGTGGAGA stands 0.0757; under ACCAGGGT, 0.0713.
Under CAATCCTG stands 0.0744; under AGCAGTAA, 0.0692; under CAACATCG, 0.0784.
Take AAGGTTCT: the binding signal (normalized occupancy) turned out to be 0.0744.
Then CACCAAAC, with 0.076; and GATACGGC, with 0.068.
Under CTATGGCC stands 0.0704; under CACACTCC, 0.0811; under TACCGGGA, 0.0741.
Under ACACTACT stands 0.0755; under AATATCAG, 0.0772.
As to ACGATCTC, the binding signal (normalized occupancy) was found to be 0.0679.
Then ACACACTC, with 0.0859.
GCGATGAC: the binding signal (normalized occupancy) came to 0.0752.
Turning to GCGCGACA, the binding signal (normalized occupancy) came to 0.0733.
Then AGGATTAA, with 0.0715.
Take ATGTGGTC: the binding signal (normalized occupancy) came to 0.0985.
Then GCAACCCA, with 0.0781; and ATGGATCG, with 0.0798.
Under CACATCGG stands 0.0739; under CACGATGC, 0.0946; under AGCCTCAG, 0.0649.
Under GGGTGAGA stands 0.0818; under CCGCCAGA, 0.0735; under GGGTACAC, 0.0823.
For CCTATCGA, the binding signal (normalized occupancy) was 0.0772.
Under AATCGCCA stands 0.0753.
Under TAAGGTGA stands 0.0717; under ACCACGCT, 0.123; under CAAGTGCC, 0.0688.
Then GGTGGGAA, with 0.0801; and CATTAAGC, with 0.0758.
For the sequence ATCACATG, the binding signal (normalized occupancy) turned out to be 0.158.
Under ATATTCAG stands 0.0784; under CAATCAAG, 0.0746.
Under AATCAGAT stands 0.0782.
Then ACACCTAA, with 0.0763.
Regarding TGTATAAA, the binding signal (normalized occupancy) was found to be 0.085.
Turning to ACCGCTTA, the binding signal (normalized occupancy) turned out to be 0.0737.
On to ATGCACAA, for which the binding signal (normalized occupancy) came out at 0.0827.
Then TGAGATCA, with 0.0819; and CATCCTGC, with 0.0785; and AAGAGGGT, with 0.0742.
For ACACGTCC, the binding signal (normalized occupancy) came out at 0.08.
Then ATTACCTG, with 0.0735; and AACCCATT, with 0.0783.
Then ACGTACGT, with 0.0783; and CGGATCGC, with 0.0707.
Then ATTTCCGC, with 0.0733; and ATGAAGTG, with 0.0824.
As for ATGCGTGA, the binding signal (normalized occupancy) is 0.0965.
Then CCAAGTAA, with 0.0724; and AGATTAAA, with 0.068.
Under ATATACAA stands 0.0876; under CCTTTTAC, 0.0757; under CGTGTGCC, 0.0918.
Under CCGCCGAA stands 0.0661.
Consider ACCCCGCT, for which the binding signal (normalized occupancy) stood at 0.0799.
For the sequence AAACACAA, the binding signal (normalized occupancy) is 0.0776.
Under GCCCCCAA stands 0.0736; under ACGTGTAA, 0.1; under AAAACGCG, 0.0758.
For the sequence ACTTCGCC, the binding signal (normalized occupancy) is 0.0729.
Then ACAGAACA, with 0.073; and AACGTGAG, with 0.0854; and CCCGCGGG, with 0.0758.
Regarding AGCGGGCG, the binding signal (normalized occupancy) was determined as 0.0694.
Then AGGCTAAG, with 0.07; and ATTCCTAA, with 0.0781.
Then AAACGTCG, with 0.0737; and CAAGTCTC, with 0.0729; and ATGGCTCG, with 0.0763.
Turning to GAGAAGTA, the binding signal (normalized occupancy) was 0.0795.
Under ATAATTAG stands 0.0786; under CCGAGACC, 0.0792; under ACGGTTCG, 0.0714.
Under GAGTGTGA stands 0.0772; under GGGTAGTA, 0.0811; under GGTCTTCA, 0.0693.
Under ATCATACG stands 0.0791; under CTACTGGC, 0.0668; under CGATTGAA, 0.0751.
On to ATTCCTTC, for which the binding signal (normalized occupancy) was 0.072.
Then CAACAAAG, with 0.0685; and GAAACACC, with 0.0751.
In the case of CTGATGAC, the binding signal (normalized occupancy) turned out to be 0.0751.
On to ATAGGGAC, for which the binding signal (normalized occupancy) worked out at 0.074.
Then GGACCGCC, with 0.0671; and CCAACCAA, with 0.0742; and CCCCATGA, with 0.0895.
Then AGCGGCGA, with 0.0673; and TGCGTACA, with 0.0865; and CCCCGTAA, with 0.0775.
Then GTTGGTAA, with 0.0789; and GACGCTCA, with 0.0731.
Consider AAGCTTAT, for which the binding signal (normalized occupancy) stood at 0.0711.
Regarding CGTAAAAG, the binding signal (normalized occupancy) is 0.0724.
For the sequence CGGATGAC, the binding signal (normalized occupancy) worked out at 0.0761.
AAAAAGAG: the binding signal (normalized occupancy) is 0.0707.
Then TCGGCGAA, with 0.0713; and ATTTGCGA, with 0.0774; and CCACTCGG, with 0.0691.
Then CAAGGATA, with 0.076.
